Measurements reported in the supplement of paper PMC4604168 (melanoma cell lines).
This is one part of the list. Repeats are few or missing, and single values can be far off.

System: SkMel30
Experiment: cell count relative to DMSO control; melanoma cells; higher = more viable cells
Conditions: library dose: standard library concentration; 72 h; first compound 2 µM
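Note: cells treated in 1,536-well plates, then fixed and DAPI-stained, with nuclei counted from automated high-throughput microscope images.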

SMILES	cell count [%]
CCCCCCCCCCCCCCCCCCOP(=O)([O-])OC1CC[N+](C)(C)CC1 [Perifosine] + C[C@]1(c2nc3c(C(N)=O)cccc3[nH]2)CCCN1 [Veliparib] (partner dose 7 µM)	84.8
Cn1sc(=O)n(Cc2ccccc2)c1=O + Cc1cc(Nc2cc(N3CCN(C)CC3)nc(/C=C/c3ccccc3)n2)n[nH]1 [ENMD2076] (partner dose 0.2 µM)	90.8
CCCCCCCCCCCCCCCCCCOP(=O)([O-])OC1CC[N+](C)(C)CC1 [Perifosine] + COc1ccc(C2=N[C@@H](c3ccc(Cl)cc3)[C@@H](c3ccc(Cl)cc3)N2C(=O)N2CCNC(=O)C2)c(OC(C)C)c1 [Nutlin-3] (partner dose 0.5 µM)	86.2
Cn1sc(=O)n(Cc2ccccc2)c1=O + Cn1c(=O)n(-c2ccc(C(C)(C)C#N)cc2)c2c3cc(-c4cnc5ccccc5c4)ccc3ncc21 [NVP-BEZ235] (partner dose 0.02 µM)	57.4
C[C@@H](N)c1ccc(C(=O)Nc2ccnc3[nH]ccc23)cc1 + Nc1nc(F)nc2c1ncn2[C@@H]1O[C@H](CO)[C@@H](O)[C@@H]1O [fludarabine] (partner dose 1 µM)	9.17
C[C@@H](N)c1ccc(C(=O)Nc2ccnc3[nH]ccc23)cc1 + O=C(Nc1cccc(Cl)c1)Nc1ncc(CCNc2ncnc3ccsc23)s1 [SNS314] (partner dose 0.004 µM)	87.4
Cn1sc(=O)n(Cc2ccccc2)c1=O + O=C(O)c1ccc2c(c1)nc(Nc1cccc(Cl)c1)c1ccncc12 [CX4945] (partner dose 2 µM)	68.2
